According to patent US20050032185:

Assays:
[1] = target: GST-PKBα (full length human protein kinase Bα with N-terminal glutathione S-transferase, from unstimulated 293 cells) [GST: P08515]
[2] = target: GST-ΔPH-PKBα (residues 118-479 of human PKBα, lacking the PH domain), P31749
Chain of GST-ΔPH-PKBα (residues 118-479 of human PKBα, lacking the PH domain), P31749 (P31749 whole entry, looked up, stated change not applied, the tested form may be a part): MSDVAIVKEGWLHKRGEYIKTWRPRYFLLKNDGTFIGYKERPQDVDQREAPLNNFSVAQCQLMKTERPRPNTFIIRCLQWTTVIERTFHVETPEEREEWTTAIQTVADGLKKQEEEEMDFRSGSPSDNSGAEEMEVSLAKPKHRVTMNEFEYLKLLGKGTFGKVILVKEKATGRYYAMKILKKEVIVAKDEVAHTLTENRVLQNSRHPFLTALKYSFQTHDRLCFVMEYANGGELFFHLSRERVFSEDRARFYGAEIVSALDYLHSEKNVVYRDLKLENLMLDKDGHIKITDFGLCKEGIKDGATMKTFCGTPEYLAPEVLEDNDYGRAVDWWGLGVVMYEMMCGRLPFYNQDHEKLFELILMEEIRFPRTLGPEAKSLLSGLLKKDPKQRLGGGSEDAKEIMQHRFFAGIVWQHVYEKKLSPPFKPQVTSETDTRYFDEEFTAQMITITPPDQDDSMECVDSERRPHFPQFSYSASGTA

B1: GST-PDK1 ([…], full length human PDK1) (protein)
chain 1: [about 200 residues not shown]
chain 2: MARTTSQLYDAVPIQSSVVLCSCPSPSMVRTQTESSTPPGIPGGSRQGPAMDGTAAEPRPGAGSLQHAQPPPQPRKKRPEDFKFGKILGEGSFSTVVLARELATSREYAIKILEKRHIIKENKVPYVTRERDVMSRLDHPFFVKLYFTFQDDEKLYFGLSYAKNGELLKYIRKIGSFDETCTRFYTAEIVSALEYLHGKGIIHRDLKPENILLNEDMHIQITDFGTAKVLSPESKQARANSFVGTAQYVSPELLTEKSACKSSDLWALGCIIYQLVAGLPPFRAGNEYLIFQKIIKLEYDFPEKFFPKARDLVEKLLVLDATKRLGCEEMEGYGPLKAHPFFESVTWENLHQQTPPKLTAYLPAMSEDDEDCYGNYDNLLSQFGCMQVSSSSSSHSLSASDTGLPQRSGSNIEQYIHDLDSNSFELDLQFSEDEKRLLLEKQAGGNPWHQFVENNLILKMGPVDKRKGLFARRRQLLLTEGPHLYYVDPVNKVLKGEIPWSQELRPEAKNFKTFFVHTPNRTYYLMDPSGNAHKWCRKIQEVWRQRYQSHPDAAVQ
[1]
  specific activity towards GST-PKBα in the presence of PtdIns(3,4,5)P3: GST-PDK1 (residues 1 to 556, 89 000 U/mg)
[2]
  rate of activation of GST-ΔPH-PKBα by PDK1 compared to wild-type GST-PKBα: the rate of activation was reduced about 20-fold compared to wild-type GST-PKBα

B2: GST-PDK1 ([…] of human PDK1) (protein)
chain 1: [about 200 residues not shown]
chain 2: DGTAAEPRPGAGSLQHAQPPPQPRKKRPEDFKFGKILGEGSFSTVVLARELATSREYAIKILEKRHIIKENKVPYVTRERDVMSRLDHPFFVKLYFTFQDDEKLYFGLSYAKNGELLKYIRKIGSFDETCTRFYTAEIVSALEYLHGKGIIHRDLKPENILLNEDMHIQITDFGTAKVLSPESKQARANSFVGTAQYVSPELLTEKSACKSSDLWALGCIIYQLVAGLPPFRAGNEYLIFQKIIKLEYDFPEKFFPKARDLVEKLLVLDATKRLGCEEMEGYGPLKAHPFFESVTWENLHQQTPPKLTAYLPAMSEDDEDCYGNYDNLLSQFGCMQVSSSSSSHSLSASDTGLPQRSGSNIEQYIHDLDSNSFELDLQFSEDEKRLLLEKQAGGNPWHQFVENNLILKMGPVDKRKGLFARRRQLLLTEGPHLYYVDPVNKVLKGEIPWSQELRPEAKNFKTFFVHTPNRTYYLMDPSGNAHKWCRKIQEVWRQRYQSHPDAAVQ
[1]
  increase in GST-PKBα activity at maximal phosphorylation: paralleled by a 35 fold increase in activity
  maximal phosphorylation of GST-PKBα (mol phosphate per mol protein): the phosphorylation of GST-PKBα reached 0.75 mol phosphate per mol protein
  specific activity towards GST-PKBα in the presence of PtdIns(3,4,5)P3: GST-PDK1 (residues 52 to 556, 78 000 U/mg)
